Source: the supplement of paper PMC12217912
The list shows a part of the results. Sequences were assembled here from the parent chain. Values near 0.05 are background.

B1: TEV protease; numbered along this chain (parent)
chain: MGESLFKGPRDYNPISSSICHLTNESDGHTTSLYGIGFGPFIITNKHLFRRNNGTLVVQSLHGVFKVKDTTTLQQHLVDGRDMIIIRMPKDFPPFPQKLKFREPQREERICLVTTNFQTKSMSSMVSDTSCTFPSGDGIFWKHWIQTKDGQCGSPLVSTRDGFIVGIHSASNFTNTNNYFTSVPKNFMELLTNQEAQQWVSGWRLNADSVLWGGHKVFMVKPEEPFQPVKEATQL

Variants of: B1
Assay: raw area under fraction-flipped curve 0-4 h after induction (AUC4h, not background-subtracted), DNA-recorder readout of cleavage of the substrate (dimensionless); higher = more cleavage of the substrate by the protease variant
Settings: temperature: 34 °C; time window: 0-4 h after rhamnose induction
Procedure: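 In vivo DNA recorder in E. coli TOP10(DE3) ΔrhaA at 34 °C. Each TEVp single-site mutant (parent TEVp 0) is paired with a single-site variant of the 7-mer TEVs (canonical ENLYFQ|S). The substrate sits between flexible linkers in a Bxb1-sfGFP-TEVs-SsrA fusion, so cleavage stabilises Bxb1 and speeds flipping of a recombination array, read by NGS. The value is the raw area under the fraction-flipped curve over 0-4 h after rhamnose induction (AUC4h), with ≥20 reads per time point. It is not background-subtracted; inactive controls average about 0.047.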
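Note: Bxb1 expression induced with 0.2% (w/v) L-rhamnose at OD600 near 0.5, cultures sampled hourly, flipped fraction per protease–substrate barcode pair counted by paired-end Illumina sequencing.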

Row | Variant | area with substrate ENLYFQA | area with substrate ENLYFQC | area with substrate ENLYFQD | area with substrate ENLYFQF | area with substrate ENLYFQG | area with substrate ENLYFQH | area with substrate ENLYFQL | area with substrate ENLYFQM | area with substrate ENLYFQR | area with substrate ENLYFQS | area with substrate ENLYFQT | area with substrate ENLYFQY | area with substrate ENLYFQE | area with substrate ENLYFQI | area with substrate ENLYFQK | area with substrate ENLYFQQ | area with substrate ENLYFQV | area with substrate ENLYFQW | area with substrate ENLYFQN | area with substrate ENLYFQP
1 | G63R | 0.0905 | 0.099 | 0.0714 | 0.0637 | 0.105 | 0.075 | 0.0495 | 0.0829 | 0.0729 | 0.0886 | 0.065 | 0.0683 |  |  |  |  |  |  |  | 
2 | G63T | 0.09 | 0.114 | 0.0974 |  |  |  | 0.046 | 0.0887 | 0.0612 | 0.0926 | 0.0669 | 0.085 | 0.0631 | 0.0643 | 0.061 | 0.0541 | 0.0562 | 0.0628 |  | 
3 | F65N | 0.107 | 0.115 | 0.0496 | 0.0793 | 0.0961 | 0.0877 | 0.0507 | 0.08 |  | 0.0943 | 0.0612 | 0.0895 | 0.0619 |  |  |  |  | 0.0622 | 0.0781 | 0.0656
4 | K66M | 0.0824 | 0.116 |  | 0.0884 | 0.0928 | 0.0923 | 0.0753 | 0.0825 | 0.0542 | 0.103 | 0.0678 | 0.0788 | 0.0565 | 0.0611 | 0.0613 |  |  | 0.0596 | 0.088 | 
5 | V67S | 0.0761 | 0.0977 | 0.0575 |  | 0.0773 | 0.0764 | 0.0452 | 0.0689 | 0.0575 | 0.0847 | 0.0578 | 0.0593 |  | 0.0644 | 0.0645 |  | 0.0472 | 0.0601 | 0.0663 | 0.0491
6 | V67W | 0.0768 | 0.0983 | 0.0698 |  | 0.0797 |  | 0.0544 | 0.0805 | 0.0536 | 0.0997 | 0.0557 | 0.0754 |  | 0.0557 | 0.0452 |  | 0.0597 | 0.0436 | 0.0801 | 
7 | K68A | 0.0831 | 0.225 | 0.0695 |  | 0.0914 |  | 0.0681 | 0.09 | 0.0771 | 0.107 | 0.0641 |  |  |  | 0.0693 | 0.118 |  | 0.0599 |  | 0.0427
8 | K68I | 0.0981 | 0.109 | 0.0675 |  | 0.0888 | 0.0695 | 0.0661 | 0.0944 | 0.054 | 0.0959 | 0.0591 | 0.0889 |  | 0.0585 | 0.062 | 0.0705 |  | 0.0583 | 0.065 | 0.0607
9 | D69S | 0.0757 | 0.0858 | 0.0683 | 0.0768 | 0.0977 | 0.0671 | 0.0578 | 0.0918 | 0.0568 | 0.0864 | 0.0639 | 0.0599 |  | 0.0489 | 0.0544 | 0.0707 | 0.0577 | 0.0606 | 0.0612 | 
10 | T70L | 0.0742 | 0.0752 | 0.0808 |  | 0.0729 |  | 0.0691 | 0.0501 | 0.0646 | 0.082 | 0.064 |  |  |  | 0.063 |  |  | 0.0498 | 0.0744 | 
11 | T71V | 0.0884 | 0.0925 |  | 0.0547 | 0.0872 | 0.0746 | 0.0503 | 0.0763 | 0.0508 | 0.091 | 0.0768 | 0.0872 | 0.0612 | 0.117 | 0.0716 | 0.0734 |  | 0.0582 |  | 
12 | L73E | 0.0556 | 0.0571 | 0.0508 | 0.072 |  | 0.0519 | 0.0317 |  | 0.0548 | 0.0547 | 0.0514 |  |  | 0.0432 | 0.0527 |  | 0.0529 |  |  | 
